Drawing on the supplement of paper PMC9938546, this text covers HCT116-GFP viability for 44 compounds.

Counter-ions that a name gives are not always drawn. The list shows a part of the results. Many values rest on one well or one pass, so single values are uncertain.
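Also: viability estimated indirectly by image-based GFP quantification with live-cell imaging of the constitutively GFP-expressing human colorectal cancer line, no immune cells added.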

This assay relates to HCT116-GFP. Put plainly: HCT116-GFP viability (GFP intensity) relative to untreated control, monoculture; higher = less cancer cell killing. Conditions: culture: HCT116-GFP monoculture; 10 µM; 72 h.
In the case of `Cc1oncc1C(=O)Nc1ccc(C(F)(F)F)cc1` [Leflunomide], the HCT116-GFP viability was 61.9%.
The result for `O=C(O)c1cccnc1Nc1cccc(C(F)(F)F)c1` [Niflumic acid] reads 111%; that for `CC(CCc1ccccc1)NCC(O)c1ccc(O)c(C(N)=O)c1` (centres undefined) [Labetalol hydrochloride], 103%.
On to `CCOC(=O)[C@H](CCc1ccccc1)N[C@@H](C)C(=O)N1Cc2ccccc2C[C@H]1C(=O)O` [Quinapril hydrochloride], for which the HCT116-GFP viability came to 109%.
The result for `NS(=O)(=O)c1cc(C(=O)O)cc(N2CCCC2)c1Oc1ccccc1` [Piretanide] reads 86.1%.
The result for `CN(C)CCCN1c2ccccc2Sc2ccccc21` [Promazine hydrochloride] reads 98.5%; that for `Cc1cc(C(C)(C)C)c(O)c(C)c1CC1=NCCN1` [Oxymetazoline hydrochloride], 92.2%; that for `COc1ccc([C@@H]2CC(=O)c3c(O)cc(O[C@@H]4O[C@H](CO[C@@H]5O[C@@H](C)[C@H](O)[C@@H](O)[C@H]5O)[C@@H](O)[C@H](O)[C@H]4O)cc3O2)cc1O` [Hesperidin], 96%.
In the case of `CC(C)(C(=O)O)c1ccc(C(O)CCCN2CCC(C(O)(c3ccccc3)c3ccccc3)CC2)cc1` (centres undefined) [Fexofenadine hydrochloride], the HCT116-GFP viability amounted to 79.7%.
The value for `Cc1c(C)c2c(c(C)c1O)CCC(C)(COc1ccc(CC3SC(=O)NC3=O)cc1)O2` (centres undefined) [Troglitazone] was 57.2%.
The value for `COC(c1ccccc1)(c1ccccc1)[C@H](Oc1nc(C)cc(C)n1)C(=O)O` [Ambrisentan] was 95.8%; that for `CSc1ccc2c(c1)C(N1CCN(C)CC1)Cc1ccccc1S2` (centres undefined) [Methiothepin maleate] was 47.7%.
The result for `CC(C(=O)O)c1ccc2c(c1)Cc1cccnc1O2` (centres undefined) [Pranoprofen] reads 98.1%; that for `CNCCCC1c2ccccc2C=Cc2ccccc21` [Protriptyline hydrochloride], 80.3%.
Take `CCCCCCC[N+](CC)(CC)CCCCc1ccc(Cl)cc1` [Clofilium tosylate]: the HCT116-GFP viability amounted to 38.7%.
With `C[C@]12CCC(=O)C=C1CC[C@@H]1[C@@H]2[C@@H](O)C[C@@]2(C)[C@H]1CC[C@]2(O)C(=O)CO` [Hydrocortisone base], the HCT116-GFP viability came out at 96%.
The result for `Oc1ncnc2[nH]ncc12` [Allopurinol] reads 96%; that for `CCCc1cc(=O)[nH]c(=S)[nH]1` [Propylthiouracil], 101%; that for `Cc1onc(-c2ccccc2)c1-c1ccc(S(N)(=O)=O)cc1` [Valdecoxib], 98%.
The result for `COc1ccc(CCN(C)CCCC(C#N)(c2ccc(OC)c(OC)c2)C(C)C)cc1OC` (centres undefined) [Verapamil hydrochloride] reads 85.5%; that for `C[N+]1(CCCCC[N+]2(C)CCCC2)CCCC1` [Pentolinium bitartrate], 98.1%; that for `Fc1ccc(C(c2ccc(F)cc2)N2CCN(C/C=C/c3ccccc3)CC2)cc1` [Flunarizine dihydrochloride], 68.2%.
The value for `CCCCC(=O)O[C@H]1CC[C@H]2[C@@H]3CCc4cc(O)ccc4[C@H]3CC[C@]12C` [Estradiol Valerate] was 81.9%.
Regarding `Cn1c(NCCN(CCO)CCCc2ccc([N+](=O)[O-])cc2)cc(=O)n(C)c1=O` [Nifekalant], the HCT116-GFP viability was 98.9%.
The value for `N=C(N)c1ccc(OCCCCCOc2ccc(C(=N)N)cc2)cc1` [Pentamidine isethionate] was 45.5%.
The result for `OCCOCCN1CCN(C2=Nc3ccccc3Sc3ccccc32)CC1` [Quetiapine hemifumarate] reads 95.3%; that for `CC1(C)S[C@@H]2[C@H](NC(=O)[C@H](N)c3ccc(O)cc3)C(=O)N2[C@H]1C(=O)O` [Amoxicillin], 99.7%.
The result for `CCC(=O)O[C@@H](O[P@](=O)(CCCCc1ccccc1)CC(=O)N1C[C@H](C2CCCCC2)C[C@H]1C(=O)O)C(C)C` [Fosinopril] reads 94.6%.
In the case of `COc1cccc2c1C(=O)c1c(O)c3c(c(O)c1C2=O)C[C@@](O)(C(=O)CO)C[C@@H]3O[C@H]1C[C@H](N)[C@H](O)[C@H](C)O1` [Doxorubicin hydrochloride], the HCT116-GFP viability is 6.27%.
The value for `CN[C@@H]1[C@H](O[C@H]2[C@H](O[C@H]3[C@H](O)[C@@H](O)[C@H](N=C(N)N)[C@@H](O)[C@@H]3N=C(N)N)O[C@@H](C)[C@]2(O)C=O)O[C@@H](CO)[C@H](O)[C@H]1O` [Streptomycin sulfate] was 104%.
The value for `Nc1nc(Cl)nc2c1ncn2[C@H]1C[C@H](O)[C@@H](CO)O1` [Cladribine] was 14.1%.
In the case of `CCCC1O[C@@H]2C[C@H]3[C@@H]4CCC5=CC(=O)C=C[C@]5(C)[C@H]4[C@@H](O)C[C@]3(C)[C@]2(C(=O)CO)O1` (some centres undefined) [Budesonide], the HCT116-GFP viability was 100%.
The result for `CC(C(=O)O)c1cccc(C(=O)c2ccccc2)c1` (centres undefined) [Ketoprofen] reads 107%; that for `C#C[C@]1(O)CC[C@H]2[C@@H]3CCc4cc(O)ccc4[C@H]3CC[C@@]21C` [Ethinylestradiol], 74%; that for `CCCCN(CCCC)CCC(O)c1cc2c(Cl)cc(Cl)cc2c2cc(C(F)(F)F)ccc12` (centres undefined) [Halofantrine hydrochloride], 67.5%.
The value for `CCOC(=O)C1=C(C)NC(C)=C(C(=O)OCC)C1c1ccccc1/C=C/C(=O)OC(C)(C)C` [Lacidipine] was 67.8%.
Consider `CCOc1cc(CC(=O)N[C@@H](CC(C)C)c2ccccc2N2CCCCC2)ccc1C(=O)O` [Repaglinide], for which the HCT116-GFP viability came to 76.3%.
The value for `COc1c(N2C[C@@H]3CCCN[C@@H]3C2)c(F)cc2c(=O)c(C(=O)O)cn(C3CC3)c12` [Moxifloxacin] was 94.1%; that for `COc1ccc(C(=O)c2ccccc2)c(O)c1` [Oxybenzone] was 97%.
The value for `COc1ncnc(NS(=O)(=O)c2ccc(N)cc2)c1OC` [Sulfadoxine] was 99.4%.
In the case of `CC(=O)OCC(=O)[C@@]1(O)[C@H](C)C[C@H]2[C@@H]3CCC4=CC(=O)C=C[C@]4(C)[C@@]3(F)[C@@H](O)C[C@@]21C` [Dexamethasone acetate], the HCT116-GFP viability amounted to 112%.
The value for `COc1ccc(C(=O)CC(=O)c2ccc(C(C)(C)C)cc2)cc1` [Avobenzone] was 81.2%.
The result for `Nc1nc2c(ncn2COCCO)c(=O)[nH]1` [Acyclovir] reads 101%; that for `CC(C)(C)NC(=O)[C@@H]1C[C@@H]2CCCC[C@@H]2CN1C[C@@H](O)[C@H](Cc1ccccc1)NC(=O)[C@H](CC(N)=O)NC(=O)c1ccc2ccccc2n1` [Saquinavir mesylate], 91.3%.
